{
  "source": "paper PMC4336329",
  "about": "(PLoS ONE, 2015)",
  "note": "In all, about 310,000 compounds went through this assay and about 14,000 (4.5%) showed an effect of 50% or more. Effects have a minus sign here. This is one part of the list.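 Note: peak tail current of the secondary pulse compared with the same well before compound.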",
  "data": [
    {"molecular_target": "human ether-à-go-go-related gene (hERG) potassium channel (human, UniProt Q12809)", "sequence (Q12809 whole entry, looked up)": "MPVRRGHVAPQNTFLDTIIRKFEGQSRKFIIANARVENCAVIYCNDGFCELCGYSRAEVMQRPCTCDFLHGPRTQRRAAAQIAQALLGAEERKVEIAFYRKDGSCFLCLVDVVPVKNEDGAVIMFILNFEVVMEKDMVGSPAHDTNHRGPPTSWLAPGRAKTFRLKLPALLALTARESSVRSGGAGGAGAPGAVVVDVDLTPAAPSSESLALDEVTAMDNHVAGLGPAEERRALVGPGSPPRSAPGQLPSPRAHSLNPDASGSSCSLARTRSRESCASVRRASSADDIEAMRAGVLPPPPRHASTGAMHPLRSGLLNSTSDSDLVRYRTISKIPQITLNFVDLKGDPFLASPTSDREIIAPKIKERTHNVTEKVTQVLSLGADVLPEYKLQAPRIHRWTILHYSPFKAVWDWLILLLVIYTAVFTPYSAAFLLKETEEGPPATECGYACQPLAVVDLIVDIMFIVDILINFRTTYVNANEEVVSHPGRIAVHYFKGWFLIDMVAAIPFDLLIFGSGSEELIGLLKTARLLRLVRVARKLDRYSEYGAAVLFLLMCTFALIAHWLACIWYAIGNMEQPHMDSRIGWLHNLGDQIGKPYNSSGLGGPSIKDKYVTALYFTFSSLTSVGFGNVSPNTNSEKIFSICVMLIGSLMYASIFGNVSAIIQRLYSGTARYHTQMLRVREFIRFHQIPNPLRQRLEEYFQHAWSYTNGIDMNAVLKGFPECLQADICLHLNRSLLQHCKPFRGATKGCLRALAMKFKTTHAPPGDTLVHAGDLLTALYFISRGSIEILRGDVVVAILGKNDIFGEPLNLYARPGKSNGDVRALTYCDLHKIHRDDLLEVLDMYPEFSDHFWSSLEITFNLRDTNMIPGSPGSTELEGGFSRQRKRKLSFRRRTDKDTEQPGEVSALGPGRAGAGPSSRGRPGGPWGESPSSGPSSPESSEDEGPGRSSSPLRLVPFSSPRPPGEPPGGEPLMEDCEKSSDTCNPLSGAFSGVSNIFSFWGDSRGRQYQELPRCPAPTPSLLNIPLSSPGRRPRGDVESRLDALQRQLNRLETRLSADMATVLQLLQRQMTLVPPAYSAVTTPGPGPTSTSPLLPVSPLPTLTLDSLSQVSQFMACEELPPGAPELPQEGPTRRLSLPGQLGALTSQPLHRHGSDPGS", "experiment": "primary screen, population patch clamp on CHO cells stably expressing hERG", "units": {"hERG current change (%, negative = inhibition) at 10uM": "%"}, "values": [
      {"smiles": "CCCCC(=O)NCCNc1nc2c(c(=O)n(C)c(=O)n2C)n1Cc1ccc(F)cc1", "hERG current change (%, negative = inhibition) at 10uM": 0.805},
      {"smiles": "OCCNc1nc(NCCC2=CCCCC2)nc(N2CCOCC2)n1", "hERG current change (%, negative = inhibition) at 10uM": -24.2},
      {"smiles": "CCN(CC)c1ccc(/C=N/NC(=O)CNC(=O)/C=C/c2ccco2)cc1", "hERG current change (%, negative = inhibition) at 10uM": -33.7},
      {"smiles": "C/C1=C\\CCC2C(/C=C(\\C)CC1)OC(=O)C2CN1CCCCC1", "note": "(stereo not drawn)", "hERG current change (%, negative = inhibition) at 10uM": 9.46},
      {"smiles": "COc1cc(CNc2ccc(O)cc2)cc(Br)c1OCc1ccccc1", "hERG current change (%, negative = inhibition) at 10uM": 28.6},
      {"smiles": "CC(=O)c1ccc(S(=O)(=O)Oc2ccc(-c3ccc(C(=O)O)cc3)cc2)cc1", "hERG current change (%, negative = inhibition) at 10uM": 13.4},
      {"smiles": "CCC(Oc1ccccc1)C(=O)OCC(=O)N(CC)c1c(N)n(Cc2ccccc2)c(=O)[nH]c1=O", "note": "(stereo not drawn)", "hERG current change (%, negative = inhibition) at 10uM": 11.3},
      {"smiles": "CCC(=O)Nc1nn(C)c2nc3c(C)cccc3cc12", "hERG current change (%, negative = inhibition) at 10uM": 7.43},
      {"smiles": "NS(=O)(=O)c1ccc(CNC(=O)Cc2cccs2)cc1", "hERG current change (%, negative = inhibition) at 10uM": 24.8},
      {"smiles": "CCOc1ccccc1OCCCC(=O)Nc1cccc(-n2cnnn2)c1C", "hERG current change (%, negative = inhibition) at 10uM": -9.18},
      {"smiles": "COc1ccc(N2CCN(CC(O)COc3ccc(C)cc3C)CC2)cc1.Cl", "note": "(stereo not drawn)", "hERG current change (%, negative = inhibition) at 10uM": -67.8},
      {"smiles": "CC1(C)Cc2c(cnn2-c2ccc(F)cc2)C(NC(=O)C(C)(C)O)C1", "note": "(stereo not drawn)", "hERG current change (%, negative = inhibition) at 10uM": -0.859},
      {"smiles": "CC(=O)[C@@H]1[C@@H]2C(=O)N(c3ccc(F)c(Cl)c3)C(=O)[C@@H]2C2c3ccccc3C=CN21", "note": "(stereo partly drawn)", "hERG current change (%, negative = inhibition) at 10uM": 9.11},
      {"smiles": "OCCN1CN=C(Nc2nc3ccccc3o2)NC1", "hERG current change (%, negative = inhibition) at 10uM": 3.92},
      {"smiles": "CC(C)c1cc[n+](-c2nc([O-])sc2C=O)cc1", "hERG current change (%, negative = inhibition) at 10uM": -0.536},
      {"smiles": "CCCCN(CCCC)Cc1ccc(C(=O)NNC(=O)Nc2ccccc2)o1", "hERG current change (%, negative = inhibition) at 10uM": -10.6},
      {"smiles": "O=C(COC(=O)/C=C/c1ccccc1)NCc1ccccc1Cl", "hERG current change (%, negative = inhibition) at 10uM": 17.8},
      {"smiles": "CCOC(=O)c1c(C)n(C)c2ccc(OCC(N)=O)cc12", "hERG current change (%, negative = inhibition) at 10uM": 7.9},
      {"smiles": "C=CCNc1nc(Nc2ccc(OC)cc2)nc(OCC)n1", "hERG current change (%, negative = inhibition) at 10uM": -3.74},
      {"smiles": "NNc1nc(-c2ccccc2)c2cc(Cl)ccc2n1", "hERG current change (%, negative = inhibition) at 10uM": -11.3},
      {"smiles": "Cc1ccc2nc(C)cc(N/N=C/c3cccc(O)c3)c2c1", "hERG current change (%, negative = inhibition) at 10uM": 12.4},
      {"smiles": "COC(=O)c1ccc([C@@H](O)[C@H](C)C(=O)CC(=O)OC(C)(C)C)cc1", "hERG current change (%, negative = inhibition) at 10uM": 11.4},
      {"smiles": "O=C(C1CCN(S(=O)(=O)c2cc(Cl)ccc2Cl)CC1)N1CCOCC1", "hERG current change (%, negative = inhibition) at 10uM": 4.29},
      {"smiles": "O=C(CCl)NC(=O)NC12CC3CC(CC(C3)C1)C2", "hERG current change (%, negative = inhibition) at 10uM": 10.7},
      {"smiles": "COCCCNC(=O)/C(C#N)=C/c1c(N2CCN(c3cccc(Cl)c3)CC2)nc2c(C)cccn2c1=O", "hERG current change (%, negative = inhibition) at 10uM": 5.69},
      {"smiles": "C=CCNC(=S)N1CCN(CCN=CC2=C(O)CC(c3ccco3)CC2=O)CC1", "note": "(stereo not drawn)", "hERG current change (%, negative = inhibition) at 10uM": -25.8},
      {"smiles": "O=C(Cn1nnc2ccccc21)Nc1ccc(Cl)cn1", "hERG current change (%, negative = inhibition) at 10uM": 8.68},
      {"smiles": "COc1ccc(S(=O)(=O)/C(C#N)=C/Nc2ccc(NC(C)=O)cc2)cc1", "hERG current change (%, negative = inhibition) at 10uM": 13.6},
      {"smiles": "CC(=O)Nc1cccc(/C(C)=N/NC(=O)c2ccccc2Cl)c1", "hERG current change (%, negative = inhibition) at 10uM": 15.8},
      {"smiles": "O=C(Cn1cc([N+](=O)[O-])ccc1=O)NCc1ccc(Cl)cc1Cl", "hERG current change (%, negative = inhibition) at 10uM": -5.73},
      {"smiles": "CCOc1ccc(C(=O)NCc2ccccn2)cc1", "hERG current change (%, negative = inhibition) at 10uM": 6.87},
      {"smiles": "COc1ccc(-c2cc(C(=O)O)no2)cc1", "hERG current change (%, negative = inhibition) at 10uM": 23.5},
      {"smiles": "O=C1c2ccccc2C(=O)c2c1cccc2-n1nnc2ccccc21", "hERG current change (%, negative = inhibition) at 10uM": 11.7},
      {"smiles": "Cc1ccccc1NC(=O)CCCCC(=O)Nc1ccccc1C", "hERG current change (%, negative = inhibition) at 10uM": 15.5},
      {"smiles": "CCC(=O)OC1(C)C(=O)C=C2C=C(c3ccsc3)OC=C2C1=O", "note": "(stereo not drawn)", "hERG current change (%, negative = inhibition) at 10uM": 6.52},
      {"smiles": "Cc1ccc(-c2cccc(CN3CCN(C(C)C)C(CCO)C3)c2)o1", "note": "(stereo not drawn)", "hERG current change (%, negative = inhibition) at 10uM": 13.4},
      {"smiles": "COc1ccc2c(c1)CCc1c(C(=O)NCc3ccc(Cl)cc3)noc1-2", "hERG current change (%, negative = inhibition) at 10uM": 19.9},
      {"smiles": "CCOc1ccccc1NC(=O)CNC(=O)CNC(=O)Cc1ccccc1", "hERG current change (%, negative = inhibition) at 10uM": 22.4},
      {"smiles": "COCCNC(=O)c1cc2nc3c(c(C(F)(F)F)n2n1)CCc1ccccc1-3", "hERG current change (%, negative = inhibition) at 10uM": 21.6},
      {"smiles": "COc1ccc(-c2cc(C(=O)Nc3sc4c(c3C#N)CCCC4)c3ccccc3n2)cc1", "hERG current change (%, negative = inhibition) at 10uM": -4.56},
      {"smiles": "C=C(C)CSc1nc2ncccc2[nH]1", "hERG current change (%, negative = inhibition) at 10uM": 0.0608},
      {"smiles": "COc1cc(C=C(C(C)=O)C(C)=O)ccc1O", "hERG current change (%, negative = inhibition) at 10uM": 12.6},
      {"smiles": "COC(=O)c1cc2occc2n1Cc1nc(-c2ccc(Cl)cc2)oc1C", "hERG current change (%, negative = inhibition) at 10uM": 11.4},
      {"smiles": "Cc1cc(CN2CCN(CC(=O)Nc3cc(C(F)(F)F)ccc3-n3cncn3)CC2)no1", "hERG current change (%, negative = inhibition) at 10uM": -69.8},
      {"smiles": "Cc1ccc(Oc2ccccc2/C=C2\\SC(=O)N(C)C2=O)cc1", "hERG current change (%, negative = inhibition) at 10uM": 4.1},
      {"smiles": "Cc1c(C(=O)N2CCOCC2)c(S(=O)(=O)Nc2ccccc2F)c(C)n1C", "hERG current change (%, negative = inhibition) at 10uM": 6.11},
      {"smiles": "COc1ccc(-n2c(O)c(C(C)=NCCN3CCNCC3)c(=O)[nH]c2=O)cc1", "hERG current change (%, negative = inhibition) at 10uM": 10.8},
      {"smiles": "O=C1Cc2cc(NS(=O)(=O)c3cc(F)ccc3F)cc3c2N1CCC3", "hERG current change (%, negative = inhibition) at 10uM": -2.87},
      {"smiles": "CN1C(=S)SC(/[N+]([O-])=C/c2c(F)cccc2Cl)C1(C)C", "note": "(stereo not drawn)", "hERG current change (%, negative = inhibition) at 10uM": 16.1},
      {"smiles": "CC1(C)CC(=O)C2=C(C1)Nc1ccccc1NC2c1nc2ccccc2[nH]1", "note": "(stereo not drawn)", "hERG current change (%, negative = inhibition) at 10uM": 2.22},
      {"smiles": "COc1cc(C(C)=O)ccc1OCC(O)Cn1nc(C)c(Br)c1C", "note": "(stereo not drawn)", "hERG current change (%, negative = inhibition) at 10uM": -7},
      {"smiles": "CN(CC(=O)Nc1ccc(Cl)c(S(=O)(=O)N(C)C)c1)Cc1ccccc1", "hERG current change (%, negative = inhibition) at 10uM": -7.18},
      {"smiles": "O=C1c2ccccc2C(=O)N1CCOCCN1C(=O)c2ccccc2C1=O", "hERG current change (%, negative = inhibition) at 10uM": 0.531},
      {"smiles": "N#CCCN(Cc1cccs1)C(=O)Nc1ccc(F)cc1", "hERG current change (%, negative = inhibition) at 10uM": -3.21},
      {"smiles": "Cc1ccc(C(=O)O/N=C2/CC3CCC2(C)[C@@]3(C)CBr)cc1", "note": "(stereo partly drawn)", "hERG current change (%, negative = inhibition) at 10uM": 6.67},
      {"smiles": "CCC(NC(=O)Nc1ccc(O)cc1)(C(F)(F)F)C(F)(F)F", "hERG current change (%, negative = inhibition) at 10uM": 19.3},
      {"smiles": "Cc1nc(=S)c2ccccc2[nH]1", "hERG current change (%, negative = inhibition) at 10uM": 11.9}
    ]}
  ]
}
